# This is one part of the list. Rule as the data show it: active = 3.2 or more and inactive = the rest. Most of these values are background signal.
# B1: STAT1_Y701 (peptide)
# chain: PKGTGYIKTEL
# B2: STK11_Y156 (peptide)
# chain: CQAHGYFCQLI
# B3: STK11_Y166_G171S (peptide)
# chain: IDGLEYLHSQS
# B4: STK11_Y166_Q170P (peptide)
# chain: IDGLEYLHSPG
# B5: STK11_Y36 (peptide)
# chain: STEVIYQPRRK
# B6: STK33_Y439_A437T (peptide)
# chain: VPDTNYTSDEE
# B7: STK33_Y439_D436E (peptide)
# chain: VPEANYTSDEE
# B8: STK36_Y1181 (peptide)
# chain: VGNAAYQAGPL
# B9: STK36_Y1181_P1185S (peptide)
# chain: VGNAAYQAGSL
# B10: STOX1_Y610 (peptide)
# chain: LRYEVYGGENE
# B11: STOX1_Y610_E608D_YF (peptide)
# chain: LRFDVYGGENE
# B12: STOX1_Y858_A863T (peptide)
# chain: RIFDYYSARKT
# B13: STOX1_Y858_YF (peptide)
# chain: RIFDFYSARKA
# B14: STRN3_Y474 (peptide)
# chain: TWNPKYTLRSH
# B15: STRN3_Y474_N471S (peptide)
# chain: TWSPKYTLRSH
# B16: STX2_Y49 (peptide)
# chain: DKITQYVEEVK
# B17: STX2_Y49_K54R (peptide)
# chain: DKITQYVEEVR
# B18: STX5_Y137 (peptide)
# chain: IEELTYIIKQD
# B19: STX5_Y137_I138V (peptide)
# chain: IEELTYVIKQD
# Target: SHP2 C-SH2 domain E139D
# Test: enrichment score (SH2-bound / input frequency) (ratio); bacterial display of known human phosphotyrosine sites (pTyr-Var adds point mutants) read by sequencing; higher = stronger binding; tyrosines were phosphorylated by kinases first
# Details: peptide library: pTyr-Var
# 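Also: displayed peptides selected on beads carrying the immobilized SH2 domain, with library peptides lacking any tyrosine serving as negative controls.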
row,Binder,enrichment score
1,B1,inactive: 1.27
2,B2,inactive: 2.05
3,B3,inactive: 0.831
4,B4,inactive: 0.732
5,B5,inactive: 0.2
6,B6,inactive: 0.495
7,B7,inactive: 0.716
8,B8,inactive: 0.684
9,B9,inactive: 0.992
10,B10,inactive: 1.16
11,B11,inactive: 1.2
12,B12,inactive: 0.891
13,B13,inactive: 1.2
14,B14,inactive: 1.1
15,B15,inactive: 1.67
16,B16,inactive: 0.873
17,B17,inactive: 0.972
18,B18,inactive: 0.689
19,B19,inactive: 0.849

# Target: SHP2 C-SH2 domain wild-type
# Test: as above
# Details: peptide library: pTyr-Var
row,Binder,enrichment score
1,B1,inactive: 0.67
2,B2,inactive: 2.03
3,B3,inactive: 0.738
4,B4,inactive: 0.647
5,B5,inactive: 0.246
6,B6,inactive: 0.497
7,B7,inactive: 0.819
8,B8,inactive: 0.571
9,B9,inactive: 1
10,B10,inactive: 0.973
11,B11,inactive: 1.13
12,B12,inactive: 0.57
13,B13,inactive: 0.68
14,B14,inactive: 0.993
15,B15,inactive: 1.29
16,B16,inactive: 0.955
17,B17,inactive: 0.908
18,B18,inactive: 0.733
19,B19,inactive: 0.754

# Target: SHP2 N-SH2 domain L43F
# Test: as above
# Details: peptide library: pTyr-Var
row,Binder,enrichment score
1,B1,inactive: 1.07
2,B2,inactive: 2.19
3,B3,inactive: 0.938
4,B4,inactive: 0.79
5,B5,inactive: 0.232
6,B6,inactive: 0.415
7,B7,inactive: 0.661
8,B8,inactive: 0.664
9,B9,inactive: 0.539
10,B10,inactive: 1.05
11,B11,inactive: 1.17
12,B12,inactive: 0.825
13,B13,inactive: 0.947
14,B14,inactive: 0.974
15,B15,inactive: 1.12
16,B16,inactive: 0.923
17,B17,inactive: 0.99
18,B18,inactive: 0.862
19,B19,inactive: 0.726

# Target: SHP2 N-SH2 domain T42A
# Test: as above
# Details: peptide library: pTyr-Var
row,Binder,enrichment score
1,B1,inactive: 0.764
2,B2,inactive: 1.86
3,B3,inactive: 0.555
4,B4,inactive: 0.61
5,B5,inactive: 0.23
6,B6,inactive: 0.471
7,B7,inactive: 0.684
8,B8,inactive: 0.533
9,B9,inactive: 0.474
10,B10,inactive: 1.04
11,B11,inactive: 1.17
12,B12,inactive: 0.903
13,B13,inactive: 1.01
14,B14,inactive: 0.971
15,B15,inactive: 1.43
16,B16,inactive: 0.739
17,B17,inactive: 0.646
18,B18,inactive: 0.959
19,B19,inactive: 0.675

# Target: SHP2 N-SH2 domain T52S
# Test: as above
# Details: peptide library: pTyr-Var
row,Binder,enrichment score
1,B1,inactive: 0.859
2,B2,inactive: 2.01
3,B3,inactive: 0.617
4,B4,inactive: 0.676
5,B5,inactive: 0.151
6,B6,inactive: 0.571
7,B7,inactive: 0.753
8,B8,inactive: 0.649
9,B9,inactive: 0.462
10,B10,inactive: 1.06
11,B11,inactive: 1.15
12,B12,inactive: 0.851
13,B13,inactive: 0.986
14,B14,inactive: 0.974
15,B15,inactive: 1.53
16,B16,inactive: 0.78
17,B17,inactive: 0.855
18,B18,inactive: 0.743
19,B19,inactive: 0.85

# Target: SHP2 N-SH2 domain wild-type
# Test: as above
# Details: peptide library: pTyr-Var
row,Binder,enrichment score
1,B1,inactive: 0.757
2,B2,inactive: 1.69
3,B3,inactive: 0.882
4,B4,inactive: 0.823
5,B5,inactive: 0.353
6,B6,inactive: 0.725
7,B7,inactive: 0.972
8,B8,inactive: 0.476
9,B9,inactive: 0.685
10,B10,inactive: 1.18
11,B11,inactive: 0.932
12,B12,inactive: 0.56
13,B13,inactive: 0.873
14,B14,inactive: 0.904
15,B15,inactive: 1.32
16,B16,inactive: 0.91
17,B17,inactive: 0.854
18,B18,inactive: 1.02
19,B19,inactive: 0.841
